Sequences with one replicate were seen in a single cluster, so their values are uncertain.
Tested on: ATP
Assay: switch fluorescence ratio, 500 uM ATP over buffer (Cy3 cluster intensity, sum of 5 cycles each) (fold (ratio)); higher = stronger signal-on switching upon ATP binding; sequences stand for … in TCGTCGGCAGCGTCAGATGTGTATAAGAGACAGTTTTTTTTTTTTTTTTTTTTTTTTT…TC
Conditions: aptamer strand: ATP DNA aptamer (quencher-CACCTGGGGGAGTATTGCGGAGGAAGG + anchor), 100 nM annealed; ATP concentration: 500 uM; one replicate
In short: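 Exposure to 500 uM ATP lasted 15 min at 22 °C before imaging, and a selection-buffer image was taken beforehand, for Cy3-labelled switching-strand clusters on a modified Illumina MiSeq flow-cell annealed to 100 nM quencher-labelled ATP aptamer. Five buffer/ATP cycles were run with NaOH stripping and re-annealing between them. The fluorescence ratio per cluster is summed target-cycle over summed buffer-cycle Cy3 intensity, averaged per switch-domain sequence. Clusters outside 100-1000 RFU were excluded.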

Sequence | switch fluorescence ratio
TAAAGCAATC | 1.15
TAGAATACGC | 1.14
CGTAGTGGG | 0.984
GGATGGGTT | 1.03
CATTTGGTGA | 1.02
GGAATACATC | 1.08
GACGTCTTA | 0.993
ATGTTTAAAC | 1.01
ATGAGCGGCT | 1.09
TTGTAGGCGC | 1.03
ATGTTATTC | 1.01
TTCATCGATT | 0.977
TCACAACTTA | 1
CCAAGACGAC | 3.27
ACCAGATT | 0.945
ACCGTGTCTC | 1.06
TTCATGAAAA | 0.973
GAAGCACGGC | 1.19
CATATGATAC | 1.04
GGAACCTTCG | 3.08
TTCTCATCGC | 0.991
GAGACACTAT | 1.04
CCGTAAGTAA | 4.4

Sequence | switch fluorescence ratio
AGGTATCCCC | 1.04
TAGAGGGCTT | 1
CAAGTACTCT | 1.27
TTACGGCCTG | 0.985
AGCACTGTCG | 0.917
GGCTACGGTT | 0.972
TGCGGCTCAG | 0.985
AAAGTCGCAC | 1.07
GGGGGGCCAA | 1.02
TCCATCCGGC | 1.05
CCCTTCTTG | 1.05
ATTTGGAAAC | 1.04
TGCGAGTGGC | 1.2
GTTCGAGACT | 1.01
TCAGCTAATT | 1.03
GGAGTCAAGT | 1.04
TCTCTTTAGG | 0.991
CGTATGCCAC | 1.04
TAGTCCGCCT | 1.05
CGGTCATGGG | 0.992
ACTGTGAAGA | 1.03
AAACAGTGCG | 1.01
GATCGTCATG | 1.01

Sequence | switch fluorescence ratio
GGGTGTGGT | 0.98
TTGAACTTA | 1.02
GGTAGCCTCT | 0.997
GATAACATAT | 0.984
GTGACCCTGT | 0.97
AGATTCCGTA | 0.966
TAACTACTAC | 1.17
CTCTCTACAT | 1.03
TAAGTATGTG | 1.01
CACTAAAGTT | 0.993
GACCTGGGAA | 1.08
TTTCTCGTGT | 0.97
AGAGATCGGT | 1
AGAGGGAGAG | 0.998
CTAGACACTG | 1.06
TATCCACTAT | 1.01
ACGCGGTTGC | 1.07
TTGTGGCCCG | 0.945
GAAGGAAAAA | 1.41
GAATGGTACA | 0.999
CGAAGATTG | 0.973
CCAAGGGCGA | 1.19
TTGATTGTCG | 1.04

Sequence | switch fluorescence ratio
GTGAGGCGTG | 0.985
ATCTATTCGC | 1.01
TGATGCCGGT | 1.12
GCACTAGGTC | 1.02
CTGGGATGCG | 1.04
TGAATTAGTC | 1
AGTAATTTAT | 0.975
CGTATTGGCA | 0.978
TAACGGTTAA | 1.01
ATGTCTAGGA | 1.02
CGTGTCTTGT | 1
TGAAGCTCAG | 1.02
TAATCAGTC | 0.962
TCTAATGGAT | 0.99
GATTGATTAC | 1.05
CCTGATCTGT | 1.02
TTTAGCGGTA | 0.982
CGGATTACAT | 1.01
GTACGTTCTA | 1.03
ACAACGAAG | 1.02
ATCTCGTCAA | 1.18
CTTATTTC | 0.989
CCGCTTTTAA | 2.84

Sequence | switch fluorescence ratio
TTCCAAGAGG | 0.997
AGGTTAGAGT | 1.03
TATCTCTTCA | 1.04
CCAAGGGGAT | 1.01
CCATCCGGAT | 1.14
GGCTAAGTAG | 1.05
CACTAGATGT | 1.02
AATTGGGAGG | 1.06
AGGATCGTAG | 0.993
GACCGTGGCC | 1.05
GTACAAGAG | 1.06
CTTGACGGA | 0.963
AAATAAAGAT | 1.02
AAGTACCGA | 1.29
GTACGCTGTA | 1.01
AAGTTACTTT | 1.02
TCCAGTTGTG | 1.07
GGTTTAGTAG | 0.962
CTCCAATCAG | 1.15
GCGGGTATCA | 0.999
AGGATGTAGA | 1.04
AGATGCTCAG | 1.01
GGGTAGCTGG | 1.01

Sequence | switch fluorescence ratio
TTCCGTTCTT | 0.951
ACCGCTACGT | 1.38
GGGTAGGATC | 1.02
TGTACACAGC | 1.08
CAAAGTGGGG | 0.995
TTAGGGGCTA | 1.04
CCCGTTACAG | 1.1
AGATGCGGG | 1.01
GTGTTGTCCA | 0.934
ATGTCTGCCG | 1.07
CAAAGTGGCT | 0.958
AGGGGTGTCA | 0.984
ATCTCTGTTG | 1.02
GGTAGAGATG | 0.987
GCGTTCTACA | 1.01
GCATGGAAAA | 0.947
TTTTGTGAA | 1
TGCGTCAGTG | 0.984
GATATGACT | 0.997
AGAGTAAGGG | 0.972
CGTAGTCGTG | 0.961
AAGGTAAGTC | 1.03
TCGCTCAATC | 1.82

Sequence | switch fluorescence ratio
TCTGCCACAA | 1.85
TTTGGCGCG | 1.01
ACAGGGATAG | 0.999
TACAGGGATT | 1.01
AACGGCAGTT | 1.01
GGCGTGGCTT | 0.987
ACGCTATAAA | 1.16
CTGTGTAGGC | 1.05
TGCGTTCCCA | 1.03
CAGGGCATTC | 1.16
GGCGGGCATA | 1.01
CGGGCTTTTG | 0.962
ACGGGTCTGT | 0.997
GAATGTGTAT | 0.985
ATATGGCGCA | 0.95
GGCGGGTTCG | 0.984
ATGAACTAGA | 1
TCATCGATTG | 0.996
GGACTCACGC | 1.43

Source: the supplement of paper PMC10126150
